Hit rate of the full screen: of about 410,000 compounds, about 850 (0.21%) were called active. Inconclusive results, whose numbers are uncertain, are shown with a selection of clear calls. Calls come from the whole dose curve; as a rule, active = well fitted inhibition curve with a large enough effect; inconclusive = small, poorly fitted or top-dose-only effect, or another doubt; inactive = no such curve, though single readings can be large or run the other way. No potency is given beside an inconclusive call; the fits are too rough.
molecular target: Glutaminase kidney isoform, mitochondrial (Homo sapiens) (UniProt O94925); experiment: qHTS for Inhibitors of Glutaminase (GLS); conditions: GLS enzymatic activity, qHTS titration; series mostly up to 45.5 µM
Sequence of UniProt O94925 (O94925 whole entry, looked up, canonical isoform): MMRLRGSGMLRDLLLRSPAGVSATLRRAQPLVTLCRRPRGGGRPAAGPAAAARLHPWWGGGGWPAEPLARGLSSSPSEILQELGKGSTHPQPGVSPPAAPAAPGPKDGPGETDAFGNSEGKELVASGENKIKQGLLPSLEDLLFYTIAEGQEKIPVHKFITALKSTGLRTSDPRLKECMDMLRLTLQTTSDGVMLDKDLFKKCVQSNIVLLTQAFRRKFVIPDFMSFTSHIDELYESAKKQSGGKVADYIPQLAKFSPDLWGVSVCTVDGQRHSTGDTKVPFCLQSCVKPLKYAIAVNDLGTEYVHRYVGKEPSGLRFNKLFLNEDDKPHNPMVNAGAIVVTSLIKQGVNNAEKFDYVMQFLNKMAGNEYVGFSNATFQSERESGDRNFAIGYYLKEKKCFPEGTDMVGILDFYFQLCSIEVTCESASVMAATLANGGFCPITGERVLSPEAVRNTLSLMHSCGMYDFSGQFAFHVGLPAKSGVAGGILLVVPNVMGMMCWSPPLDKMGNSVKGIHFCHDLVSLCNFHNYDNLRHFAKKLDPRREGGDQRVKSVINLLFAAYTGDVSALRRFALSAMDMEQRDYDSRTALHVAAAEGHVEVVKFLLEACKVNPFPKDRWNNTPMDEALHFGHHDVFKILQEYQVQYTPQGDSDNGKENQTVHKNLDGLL
Summary of the method: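 Enzyme dispensed in phosphate buffer (45 mM, pH 8.2, 0.02% Tween-20), compounds pinned in, then 1 mM L-glutamine solution and the glutamate oxidase–HRP–Amplex Red mix added; fluorescence read immediately and again after 30 min at room temperature.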
Potency is the fitted concentration of half-maximal effect; tags give direction and shape of the fitted curve.

Which Potency does the source give for `CCn1c(=O)c(=O)n(CC)c2cc(N3CCCCC3)c(NC(=O)c3ccc(Cl)cc3)cc21` here?
Its Potency is inconclusive [inhibitor, partial curve, poor fit].

For `NNC(=O)c1cc2cc(OC(F)(F)F)ccc2[nH]1`, which Potency is on record?
Its Potency is inconclusive [inhibitor, partial curve].

Which Potency does the source give for `Cc1ccccc1OCC(=O)NC(=S)Nc1ccc2c3c(cccc13)CC2` here?
Its Potency is inconclusive [inhibitor, single point].

`CCC(=O)Nc1ccc(S(=O)(=O)Nc2c(C)nc3nc[nH]n3c2=O)cc1` was tested. Which Potency did it give?
Its Potency is inconclusive [inhibitor, partial curve, poor fit].

Which Potency does the source give for `Cc1cc(C)c2c(CC(=O)O)c(C)[nH]c2c1` here?
Its Potency is inconclusive [inhibitor, partial curve].

`N#Cc1c(Sc2ncc(C(F)(F)F)cc2Cl)nsc1C/C=N\OCc1ccccc1Br` was tested. Which Potency did it give?
Its Potency is “inactive”.

Which Potency does the source give for `CCOC(=O)C1=C(CS(=O)(=O)c2ccc(F)cc2)NC(=O)NC1c1ccc(O)c(O)c1` (stereo not drawn) here?
Its Potency is inconclusive [inhibitor, single point].

For `C[C@@H]1CN([C@@H](C)CO)S(=O)(=O)c2ccc(Br)cc2O[C@@H]1CN(C)C(=O)C1CC1`, which Potency is on record?
The Potency was “inactive”.

Which Potency does the source give for `COc1ccc(S(=O)(=O)NC2CCCC2)c(Cl)c1Cl` here?
The Potency was inconclusive [inhibitor, single point].

For `COc1ccnc2c1c(=O)n(Cc1ccc(Cl)cc1)c(=O)n2C`, which Potency is on record?
The Potency was inconclusive [inhibitor, single point].

Which Potency does the source give for `O=C(NNC(=S)Nc1ccccc1)c1ccc2ncccc2c1` here?
The Potency was inconclusive [inhibitor, partial curve, poor fit].

`COc1cc(NC2c3ccccc3C(=O)N2Cc2ccc3c(c2)OCO3)cc(OC)c1` (stereo not drawn) was tested. Which Potency did it give?
The Potency was inconclusive [inhibitor, full curve, poor fit].

`Cc1ccc(NC(=O)CC2SC(=O)N(c3ccccc3)C2=O)cc1` (stereo not drawn) was tested. Which Potency did it give?
Its Potency is active: 11.2 µM.

How did the Potency turn out when `O=C(NC(Cc1ccccc1)C(=O)O)/C(=C/c1ccc(F)cc1)NC(=O)c1ccccc1` (stereo not drawn) was run?
Its Potency is inconclusive [inhibitor, single point].

Which Potency does the source give for `O=[N+]([O-])c1ccc(Cl)c(/C=N/Nc2nc(N3CCOCC3)nc(N3CCOCC3)n2)c1` here?
Its Potency is inconclusive [inhibitor, single point].

How did the Potency turn out when `Cc1ccc(C=NNC(=O)C(=O)Nc2ccc(Cl)c([N+](=O)[O-])c2)cc1` was run?
The Potency was inconclusive [inhibitor, partial curve, poor fit].

For `C/C=C\C=C\C(=O)N1CC2(CC(c3cccc(NC(=O)CC)c3)=NO2)C[C@H]1C(N)=O` (stereo partly drawn), which Potency is on record?
Its Potency is inconclusive [inhibitor, partial curve, poor fit].

With `COc1ccccc1NC(=S)NC(=O)CCCOc1ccc(Cl)cc1Cl` as the compound, how does the Potency read?
Its Potency is “inactive”.

How did the Potency turn out when `CSc1ccccc1NC(=O)c1cc2ncc(Br)cn2n1` was run?
Its Potency is “inactive”.

With `Cn1c(OCc2cccnc2)nc2c1c(=O)n(Cc1ccc(Br)cc1)c(=O)n2C` as the compound, how does the Potency read?
The Potency was inconclusive [inhibitor, single point].

How did the Potency turn out when `O=C(CN1C(=O)NC2(CCCC2)C1=O)N1CCN(S(=O)(=O)c2cc(Cl)ccc2Cl)CC1` was run?
The Potency was “inactive”.

`COc1ccc([N+](=O)[O-])c(S(=O)(=O)c2ccc(Cl)cc2)n1` was tested. Which Potency did it give?
The Potency was “inactive”.

For `O=C1NNC(c2ccccc2)=N/C1=C\c1ccco1`, which Potency is on record?
Its Potency is inconclusive [inhibitor, partial curve, poor fit].

`CCCCC(=O)O[C@]1(C(=O)CO)[C@H](C)C[C@H]2[C@@H]3CCC4=CC(=O)C=C[C@]4(C)[C@@]3(F)[C@@H](O)C[C@@]21C` was tested. Which Potency did it give?
Its Potency is “inactive”.

With `N#CCC(=O)NNC(=S)Nc1ccccc1C(F)(F)F` as the compound, how does the Potency read?
The Potency was inconclusive [inhibitor, single point].

How did the Potency turn out when `COc1ccc(-c2ccc(C#N)c(SCC(=O)NCc3ccco3)n2)cc1OC` was run?
Its Potency is inconclusive [inhibitor, partial curve, poor fit].

For `O=C(O)c1ccccc1N/N=C/c1cc(Br)cc(Br)c1O`, which Potency is on record?
Its Potency is inconclusive [inhibitor, partial curve].

With `COc1ccc(CCC(C)N2CCC(CO)(Cc3ccccc3)CC2)cc1` (stereo not drawn) as the compound, how does the Potency read?
The Potency was “inactive”.

`Cc1nc(N2CCCCC2)sc1C(=O)c1ccc(SCCO)c([N+](=O)[O-])c1` was tested. Which Potency did it give?
Its Potency is inconclusive [inhibitor, single point].

With `CC(C)(C)NC(=O)CSc1ccc(C(C)(C)C)cc1` as the compound, how does the Potency read?
The Potency was “inactive”.

`NC(=O)c1ccc(N2CCN(c3ccccc3O)CC2)c([N+](=O)[O-])c1` was tested. Which Potency did it give?
The Potency was active: 11.2 µM.

With `COc1ccc(Nc2ccc(Nc3ccc(OC)cc3)nn2)cc1` as the compound, how does the Potency read?
The Potency was “inactive”.

For `Cc1cc(-c2nc(C)c(C(=O)NNC(=O)NC(C)C)s2)no1`, which Potency is on record?
The Potency was “inactive”.

For `CCC(CO)Oc1cc(NC(=O)c2ccccc2C)c2ncn(C(C)C)c2c1` (stereo not drawn), which Potency is on record?
Its Potency is inconclusive [inhibitor, single point].

How did the Potency turn out when `NC(=O)c1ccccc1[N+](=O)[O-]` was run?
Its Potency is “inactive”.

For `CCCSc1nc2sc3c(c2c(=O)[nH]1)CCN(Cc1ccccc1)C3`, which Potency is on record?
Its Potency is inconclusive [inhibitor, single point].

How did the Potency turn out when `CCOc1ccc(/C=C2/SC(=S)N(C(C(=O)O)c3ccccc3)C2=O)cc1OCC` (stereo not drawn) was run?
Its Potency is inconclusive [inhibitor, single point].

Which Potency does the source give for `Cc1ccc(-c2nc3ncccn3c2Nc2ccccc2C)o1` here?
Its Potency is “inactive”.

Which Potency does the source give for `FC(F)(F)c1cnc(NNC(=S)Nc2ccccc2Cl)c(Cl)c1` here?
The Potency was inconclusive [inhibitor, partial curve].

For `CC1(CCc2ccc3c(c2)OCO3)NC(=O)c2ccccc2N1` (stereo not drawn), which Potency is on record?
The Potency was inconclusive [inhibitor, single point].

`CCN(CC)C(=O)CSc1nc2sc3c(c2c(=O)n1CCCOC)CCC3` was tested. Which Potency did it give?
Its Potency is inconclusive [inhibitor, single point].

For `CC(C)COC(=O)c1ccc(N2C(=O)c3ccccc3C2=O)cc1`, which Potency is on record?
Its Potency is inconclusive [inhibitor, single point].

`Cc1cnc(C(=O)OCc2nc3ccsc3c(=O)[nH]2)cn1` was tested. Which Potency did it give?
Its Potency is active: 14.1 µM.

With `CC1CCCN(S(=O)(=O)c2ccc(C(=O)Nc3sc4c(c3C(N)=O)CCN(C)C4)cc2)C1` (stereo not drawn) as the compound, how does the Potency read?
Its Potency is inconclusive [inhibitor, single point].

`FC(F)(F)Oc1ccc(Nc2nc(N3CCOCC3)nc(N3CCOCC3)n2)cc1` was tested. Which Potency did it give?
Its Potency is inconclusive [inhibitor, single point].

Which Potency does the source give for `O=C(Cc1sc(Nc2ccccc2)nc1-c1ccccc1)NCc1ccccn1` here?
Its Potency is inconclusive [inhibitor, single point].

For `O=C(Nc1nnc(-c2cc(Cl)ccc2Cl)o1)c1ccco1`, which Potency is on record?
The Potency was inconclusive [inhibitor, single point].

`COc1cc2cc(CNc3ccc(C)cc3)c(=O)n(CC(=O)Nc3ccc(C(C)C)cc3)c2cc1OC` was tested. Which Potency did it give?
Its Potency is inconclusive [inhibitor, single point].

For `COc1ccc(CNC(=O)C(=O)NCCC2CCCCN2S(=O)(=O)c2ccccc2)cc1` (stereo not drawn), which Potency is on record?
The Potency was “inactive”.

How did the Potency turn out when `CCOc1ccc(-n2nnnc2SCC(=O)NNC(=O)c2ccco2)cc1` was run?
The Potency was inconclusive [inhibitor, single point].

Which Potency does the source give for `CCOc1cc(/C=C2\C(=O)N(CCc3ccc(OC)c(OC)c3)C(C)=C2C(=O)OC)ccc1O` here?
The Potency was “inactive”.

With `CCOC(=O)c1cc(C#N)c(Oc2cccc(C(F)(F)F)c2)nc1-c1ccccc1` as the compound, how does the Potency read?
Its Potency is inconclusive [inhibitor, single point].

`CC(C)(C)c1ccc(NC(=O)CSc2nnc3scc(-c4ccccc4)n23)cc1` was tested. Which Potency did it give?
Its Potency is “inactive”.

For `COc1ccccc1CNC(=O)CN1C(=O)NC2(CCCc3sccc32)C1=O` (stereo not drawn), which Potency is on record?
The Potency was “inactive”.

How did the Potency turn out when `O=C(NNC(=O)c1cccnc1)Nc1ccc([N+](=O)[O-])cc1` was run?
The Potency was inconclusive [inhibitor, partial curve, poor fit].

`CC(=O)Nc1ccc(-c2csc(NCc3ccccc3)n2)cc1` was tested. Which Potency did it give?
Its Potency is inconclusive [inhibitor, single point].

For `CCOC(=O)c1c2c3c(cccc3[nH]c1=O)C(=O)c1ccccc1-2`, which Potency is on record?
The Potency was “inactive”.

For `CSc1nc(N(C)CCO)c2sc3nc(-c4ccco4)c4c(c3c2n1)CCC4`, which Potency is on record?
Its Potency is active: 12.6 µM.

`O=C(/C=C/c1ccco1)NC(=S)Nc1cccc(C(=O)O)c1` was tested. Which Potency did it give?
Its Potency is inconclusive [inhibitor, partial curve, poor fit].

`N#CC1=C(N)OC2=C(CC/C2=C\c2ccccc2)C1c1ccccc1` (stereo not drawn) was tested. Which Potency did it give?
The Potency was inconclusive [inhibitor, single point].

With `CCCNC(=O)c1cc(OC)c(OC)cc1[N+](=O)[O-]` as the compound, how does the Potency read?
Its Potency is “inactive”.

How did the Potency turn out when `Cc1oc2c(c1C(=O)NC(Cc1c[nH]c3ccccc13)C(=O)O)CCCC2` (stereo not drawn) was run?
The Potency was inconclusive [inhibitor, single point].

`C=CCc1ccccc1OCC(O)CN1CCN(c2ccccc2)CC1` (stereo not drawn) was tested. Which Potency did it give?
Its Potency is “inactive”.

For `Fc1ccccc1-n1cc(-c2ccccc2)[nH]c1=S`, which Potency is on record?
Its Potency is inconclusive [inhibitor, single point].

Which Potency does the source give for `CCOC(=O)C1C(=O)CC(C)(O)C(C(=O)OCC)C1c1ccco1` (stereo not drawn) here?
The Potency was inconclusive [inhibitor, single point].

How did the Potency turn out when `COc1ccc(CCNC(=O)C/C(C)=N/NC(=O)c2ccc(N)cc2)cc1OC` was run?
Its Potency is “inactive”.

With `Cc1ccc(NC(=O)CN2C(=O)S/C(=C\c3ccc(OCC(=O)O)c(Br)c3)C2=O)cc1` as the compound, how does the Potency read?
The Potency was inconclusive [inhibitor, single point].

With `Cc1oc(-c2ccccc2)cc1C(=O)NC(Cc1c[nH]c2ccccc12)C(=O)O` (stereo not drawn) as the compound, how does the Potency read?
The Potency was inconclusive [inhibitor, single point].
